The other results are listed elsewhere or left out. At the low end of the ranking, values are background and their order means little.
What follows are sequences tested against GST-SBP-SLBP (stem-loop binding protein) (UniProt Q14493) (assay: targeted RNA Bind-n-Seq). Settings: RBNS binding buffer: 25 mM Tris pH 7.5, 150 mM KCl, 3 mM MgCl2, 0.1% Tween, 0.5 mg/mL BSA, 1 mM DTT; 27 nM protein, 750 pM RNA pool; temperature not stated; high values mean tight binding.
“GGUCACGUCUCAAUCAACUCAUCUCCCAGGGAAAGCCCUGGCUUUUUCAACAGCUCGCAGUCAAG” was tested, and the binding signal (log2 fold change) was 0.288. Sequence “GGUCACGUCUCAAUCAACUCAAAAGAGGGGGGGAAAACCCCUUUGCCCUCCAUGUCAACAGCUCGCAGUCAAG” has a binding signal (log2 fold change) of -0.397. “GGUCACGUCUCAAUCAACUCAAACGAGGGGGGGAAAACCCCUUUACCCUCACACUCAACAGCUCGCAGUCAAG” gave a binding signal (log2 fold change) of 0.0128. “GGUCACGUCUCAAUCAACUCAAUUCCAGGAGUUUACUCCUGCUUACUCAACAGCUCGCAGUCAAG” gave a binding signal (log2 fold change) of -0.0216. “GGUCACGUCUCAAUCAACUCUUCUUCAGGAGUUUACUCCUGUUUUCUCAACAGCUCGCAGUCAAG” was tested, and the binding signal (log2 fold change) was 0.19. “GGUCACGUCUCAAUCAACUCAUUUCCAGGAGUUUCCUCCUGCUUUCUCAACAGCUCGCAGUCAAG” was tested, and the binding signal (log2 fold change) was 0.0705. For “GGUCACGUCUCAAUCAACUCUUAAGAGGGGGGGAAAACCCCUUUACCCUCCGUUUCAACAGCUCGCAGUCAAG”, the binding signal (log2 fold change) was -0.503. For “GGUCACGUCUCAAUCAACUCUACAGAGGGGGGGAAAACCCCUUUGCCCUCCAUAUCAACAGCUCGCAGUCAAG”, the binding signal (log2 fold change) was -0.539. In the case of “GGUCACGUCUCAAUCAACUCAUUUUCAGGAGUUUACUCCUGUAUACUCAACAGCUCGCAGUCAAG”, the binding signal (log2 fold change) is reported as 0.0539. “GGUCACGUCUCAAUCAACUCACAAGAGGGGGGGAAAACCCCUUUGCCCUCACACUCAACAGCUCGCAGUCAAG” showed a binding signal (log2 fold change) of 0.201. “GGUCACGUCUCAAUCAACUCAGUCCCCAGGGAAACCCCUGGUUAAUUCAACAGCUCGCAGUCAAG” was tested, and the binding signal (log2 fold change) was -0.153. Work on “GGUCACGUCUCAAUCAACUCAACUUCCAGGGAAAUCCCUGGUUAUCUCAACAGCUCGCAGUCAAG” yielded a binding signal (log2 fold change) of -0.0259. With “GGUCACGUCUCAAUCAACUCUACUUCCAGGGAAAGCCCUGGCAAACUCAACAGCUCGCAGUCAAG” the binding signal (log2 fold change) was -0.0996. “GGUCACGUCUCAAUCAACUCAUUCCCAGGAGUUUUCUCCUGCAUUCUCAACAGCUCGCAGUCAAG” showed a binding signal (log2 fold change) of 0.0703. “GGUCACGUCUCAAUCAACUCAGUCUCCAGGGAAAUCCCUGGCUUUCUCAACAGCUCGCAGUCAAG” was tested, and the binding signal (log2 fold change) was -0.542. “GGUCACGUCUCAAUCAACUCCUACGAGGGGGGGAAAACCCCUUUACCCUCAUACUCAACAGCUCGCAGUCAAG” gave a binding signal (log2 fold change) of -0.157. “GGUCACGUCUCAAUCAACUCAUUCCCAGGAGUUUCCUCCUGUAAAUUCAACAGCUCGCAGUCAAG” showed a binding signal (log2 fold change) of -0.0105. In the case of “GGUCACGUCUCAAUCAACUCAAUGUCAGGAGUUUACUCCUGCUAAUUCAACAGCUCGCAGUCAAG”, the binding signal (log2 fold change) is reported as 0.0432. “GGUCACGUCUCAAUCAACUCAAUUCCCAGGGAAAUCCCUGGCUUUUUCAACAGCUCGCAGUCAAG” gave a binding signal (log2 fold change) of 0.0611. Sequence “GGUCACGUCUCAAUCAACUCCUUAGAGGGGGGGAAAACCCCUUUGCCCUCAAUAUCAACAGCUCGCAGUCAAG” has a binding signal (log2 fold change) of -0.348.

— article PMC5892938
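Note: DESeq read counts versus GST-SBP nonspecific binding control pulldown.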
